# Measured values: the supplement of paper PMC8728848
# Some of the results follow.
# What was measured:
# Test in all cases: glycan array binding signal (z-score within array); higher = stronger binding
# Conditions in all cases: glycan notation: IUPAC condensed, linker removed
# [1] = target: Fuc(a1-2)[Gal(a1-3)]Gal(b1-4)GlcNAc(b1-2)Man(a1-3)[Fuc(a1-2)[Gal(a1-3)]Gal(b1-4)GlcNAc(b1-2)Man(a1-6)]Man(b1-4)GlcNAc(b1-4)[Fuc(a1-6)]GlcNAc
# Procedure, shortened: (§1)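 Glycan array binding is given as a within-array Z-score, which can be read as non-binding when negative. The arrays, 3228 of them, came from the Consortium for Functional Glycomics database and were retained only where the protein sequence was available. Z-scores were averaged across arrays of the same protein sequence at different concentrations or buffers and across linkers.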
# [2] = target: Fuc(a1-2)[Gal(a1-3)]Gal(b1-4)GlcNAc(b1-3)GalNAc
# Procedure, shortened: as §1
# [3] = target: Fuc(a1-2)[Gal(a1-3)]Gal(b1-4)GlcNAc(b1-3)[Fuc(a1-2)[Gal(a1-3)]Gal(b1-4)GlcNAc(b1-6)]GalNAc
# Procedure, shortened: as §1
# [4] = target: Fuc(a1-2)[Gal(a1-3)]Gal(b1-4)GlcNAc(b1-6)GalNAc
# Procedure, shortened: as §1
# [5] = target: Fuc(a1-2)[Gal(a1-3)]Gal(b1-4)[Fuc(a1-3)]Glc
# Procedure, shortened: as §1
# [6] = target: Fuc(a1-2)[Gal(a1-3)]Gal(b1-4)[Fuc(a1-3)]GlcNAc
# Procedure, shortened: as §1
# [7] = target: Fuc(a1-2)[Gal(a1-3)]Gal(b1-4)[Fuc(a1-3)]GlcNAc(b1-3)GalNAc
# Procedure, shortened: as §1
# [8] = target: Fuc(a1-2)[Gal(a1-4)]Gal(b1-4)GlcNAc
# Procedure, shortened: as §1
# [9] = target: Fuc(a1-2)[GalNAc(a1-3)]Gal
# Procedure, shortened: as §1
# [10] = target: Fuc(a1-2)[GalNAc(a1-3)]Gal(b1-3)GalNAc(a1-3)[Fuc(a1-2)]Gal(b1-4)GlcNAc
# Procedure, shortened: as §1
# [11] = target: Fuc(a1-2)[GalNAc(a1-3)]Gal(b1-3)GalNAc(b1-3)Gal(a1-4)Gal(b1-4)Glc
# Procedure, shortened: as §1
# [12] = target: Fuc(a1-2)[GalNAc(a1-3)]Gal(b1-3)GlcNAc
# Procedure, shortened: as §1
# [13] = target: Fuc(a1-2)[GalNAc(a1-3)]Gal(b1-3)GlcNAc(b1-2)Man(a1-3)[Fuc(a1-2)[GalNAc(a1-3)]Gal(b1-3)GlcNAc(b1-2)Man(a1-6)]Man(b1-4)GlcNAc(b1-4)GlcNAc
# Procedure, shortened: as §1
# [14] = target: Fuc(a1-2)[GalNAc(a1-3)]Gal(b1-3)GlcNAc(b1-2)Man(a1-3)[Fuc(a1-2)[GalNAc(a1-3)]Gal(b1-3)GlcNAc(b1-2)Man(a1-6)]Man(b1-4)GlcNAc(b1-4)[Fuc(a1-6)]GlcNAc
# Procedure, shortened: as §1
# [15] = target: Fuc(a1-2)[GalNAc(a1-3)]Gal(b1-3)GlcNAc(b1-3)GalNAc
# Procedure, shortened: as §1
# [16] = target: Fuc(a1-2)[GalNAc(a1-3)]Gal(b1-3)GlcNAc(b1-6)GalNAc
# Procedure, shortened: as §1
# [17] = target: Fuc(a1-2)[GalNAc(a1-3)]Gal(b1-4)Glc
# Procedure, shortened: as §1
# [18] = target: Fuc(a1-2)[GalNAc(a1-3)]Gal(b1-4)GlcNAc
# Procedure, shortened: as §1
# [19] = target: Fuc(a1-2)[GalNAc(a1-3)]Gal(b1-4)GlcNAc(b1-2)Man
# Procedure, shortened: as §1
# [20] = target: Fuc(a1-2)[GalNAc(a1-3)]Gal(b1-4)GlcNAc(b1-2)Man(a1-3)[Fuc(a1-2)[GalNAc(a1-3)]Gal(b1-4)GlcNAc(b1-2)Man(a1-6)]Man(b1-4)GlcNAc(b1-4)GlcNAc
# Procedure, shortened: as §1
# [21] = target: Fuc(a1-2)[GalNAc(a1-3)]Gal(b1-4)GlcNAc(b1-2)Man(a1-3)[Fuc(a1-2)[GalNAc(a1-3)]Gal(b1-4)GlcNAc(b1-2)Man(a1-6)]Man(b1-4)GlcNAc(b1-4)[Fuc(a1-6)]GlcNAc
# Procedure, shortened: as §1
# [22] = target: Fuc(a1-2)[GalNAc(a1-3)]Gal(b1-4)GlcNAc(b1-3)Gal(b1-4)GlcNAc
# Procedure, shortened: as §1
# [23] = target: Fuc(a1-2)[GalNAc(a1-3)]Gal(b1-4)GlcNAc(b1-3)Gal(b1-4)GlcNAc(b1-3)Gal(b1-4)GlcNAc
# Procedure, shortened: as §1
# [24] = target: Fuc(a1-2)[GalNAc(a1-3)]Gal(b1-4)GlcNAc(b1-3)GalNAc
# Procedure, shortened: as §1
# [25] = target: Fuc(a1-2)[GalNAc(a1-3)]Gal(b1-4)GlcNAc(b1-3)[Fuc(a1-2)[GalNAc(a1-3)]Gal(b1-4)GlcNAc(b1-6)]GalNAc
# Procedure, shortened: as §1
# [26] = target: Fuc(a1-2)[GalNAc(a1-3)]Gal(b1-4)GlcNAc(b1-6)GalNAc
# Procedure, shortened: as §1
# [27] = target: Fuc(a1-2)[GalNAc(a1-3)]Gal(b1-4)[Fuc(a1-3)]GlcNAc
# Procedure, shortened: as §1
# [28] = target: Fuc(a1-2)[GalNAc(a1-3)]Gal(b1-4)[Fuc(a1-3)]GlcNAc(b1-3)GalNAc
# Procedure, shortened: as §1
# [29] = target: Fuc(a1-2)[GalNAc(a1-4)]Gal(b1-4)GlcNAc
# Procedure, shortened: as §1
# [30] = target: Fuc(a1-2)[GalNAc(b1-3)]Gal
# Procedure, shortened: as §1
binder,measurement,setting,value
"Pa IMPa (Pseudomonas aeruginosa), Q9I5W4 (protein) MSLSTTAFPSLQGENMSRSPIPRHRALLAGFCLAGALSAQAATQEEILDAALVSGDSSQLTDSHLVALRLQQQVERIRQTRTQLLDGLYQNLSQAYDPGAASMWVLPANPDNTLPFLIGDKGRVLASLSLEAGGRGLAYGTNVLTQLSGTNAAHAPLLKRAVQWLVNGDPGAATAKDFKVSVVGVDKTAALNGLKSAGLQPADAACNALTDASCASTSKLLVLGNGASAASLSATVRARLQAGLPILFVHTNGWNQSSTGQQILAGLGLQEGPYGGNYWDKDRVPSSRTRTRSVELGGAYGQDPALVQQIVDGSWRTDYDWSKCTSYVGRTTCDDVPGLSDFSKRVDVLKGALDAYNQKAQNLFALPGTTSLRLWLLWADAVRQNIRYPMDKAADTARFQETFVADAIVGYVREAGAAQKELGSYAGQRQQSMPVSGSEETLTLTLPSAQGFTAIGRMAAPGKRLSIRIEDAGQASLAVGLNTQRIGSTRLWNTRQYDRPRFLKSPDIKLQANQSVALVSPYGGLLQLVYSGATPGQTVTVKVTGAASQPFLDIQPGEDSSQAIADFIQALDADKADWLEIRSGSVEVHAKVEKVRGSIDKDYGGDVQRFIRELNEVFIDDAYTLAGFAIPNQAKTPAIQQECAARGWDCDSETLHKLPGTQHINVDQYAQCGGGCSGNPYDQTWGLNPRGWGESHELGHNLQVNRLKVYGGRSGEISNQIFPLHKDWRVLREFGQNLDDTRVNYRNAYNLIVAGRAEADPLAGVYKRLWEDPGTYALNGERMAFYTQWVHYWADLKNDPLQGWDIWTLLYLHQRQVDKSDWDANKAALGYGTYAQRPGNSGDASSTDGNDNLLLGLSWLTQRDQRPTFALWGIRTSAAAQAQVAAYGFAEQPAFFYANNRTNEYSTVKLLDMSQGSPAWPFP",glycan array binding signal (z-score),[1],-0.407
same,glycan array binding signal (z-score),[2],-0.199
same,glycan array binding signal (z-score),[3],0.417
same,glycan array binding signal (z-score),[4],-0.268
same,glycan array binding signal (z-score),[5],-0.326
same,glycan array binding signal (z-score),[6],-0.141
same,glycan array binding signal (z-score),[7],-0.132
same,glycan array binding signal (z-score),[8],-0.253
same,glycan array binding signal (z-score),[9],-0.007
same,glycan array binding signal (z-score),[10],-0.32
same,glycan array binding signal (z-score),[11],-0.158
same,glycan array binding signal (z-score),[12],-0.035
same,glycan array binding signal (z-score),[13],-0.098
same,glycan array binding signal (z-score),[14],-0.127
same,glycan array binding signal (z-score),[15],-0.411
same,glycan array binding signal (z-score),[16],-0.321
same,glycan array binding signal (z-score),[17],-0.07
same,glycan array binding signal (z-score),[18],-0.169
same,glycan array binding signal (z-score),[19],0.093
same,glycan array binding signal (z-score),[20],-0.041
same,glycan array binding signal (z-score),[21],-0.216
same,glycan array binding signal (z-score),[22],-0.489
same,glycan array binding signal (z-score),[23],-0.22
same,glycan array binding signal (z-score),[24],-0.342
same,glycan array binding signal (z-score),[25],-0.147
same,glycan array binding signal (z-score),[26],-0.355
same,glycan array binding signal (z-score),[27],-0.022
same,glycan array binding signal (z-score),[28],-0.312
same,glycan array binding signal (z-score),[29],-0.112
same,glycan array binding signal (z-score),[30],-0.197
